Reference: article PMC5892938
The other results are listed elsewhere or left out. Construct or isoform of the protein are uncertain.

Each sequence was assayed against GST-SBP-ILF3 (Homo sapiens) (UniProt Q12906) (assay: targeted RNA Bind-n-Seq). Conditions: RBNS binding buffer: 25 mM Tris pH 7.5, 150 mM KCl, 3 mM MgCl2, 0.1% Tween, 0.5 mg/mL BSA, 1 mM DTT; 27 nM protein, 750 pM RNA pool; temperature not stated; high values mean tight binding; sequences stand for … in GGGUAAAAGCGAGGUGAA…CGGGACAAGUAUUAUGGG.

Sequence	binding signal (log2 fold change)
GGUGGUGGUGUUGGUCCCUAACACCAUCGC [gtspaired]	-0.448
UUUUUUUUUUGAGAGCGACGCGCUCUUCUG [tttttgagapaired]	0.425
UUUUUUUUUUGAGACUGCUACAGUCUCCUA [tttttgagapaired]	0.374
UUCCUCUCUCCUCCGAUGGAGGGGGGAGGA [ctspaired]	-0.47
UUUUUUUUUUGAGAGUGACGCACUCUCCAG [tttttgagapaired]	0.255
GUGGUUGGUGUUGGAGCCUAACACCAGCCG [gtspaired]	-0.712
UUUUUUUUUUGAGACCGACUCGGUCUUCUA [tttttgagapaired]	0.245
GUGUGGUGUGUUGGCCCCUAACACAUCGCG [gtspaired]	-0.279
GUGGUUGGUGUUGGCUUCUAACACCAGCCG [gtspaired]	-0.853
GUUGUGUGUGUUGGCGCCUAACACACGCAG [gtspaired]	-0.408
UUUUUUUUUUGAGACGGUGUCCGUCUCCUG [tttttgagapaired]	1
UUUUUUUUUUGAGAUGGCGGCCAUCUUCUG [tttttgagapaired]	0.768
GGUUGGUGUGUUGGACUCUAACACAUCAGC [gtspaired]	-0.667
UUUUUUUUUUGAGACGGCUACCGUUUCCGG [tttttgagapaired]	0.517
GUGGUUGGUGUUGGCAUCUAACACCAGCCG [gtspaired]	-0.707
UUUUUUUUUUGAGAGCGGGUCGCUCUCCUA [tttttgagapaired]	0.151
GUGUGUUGUGUUGGAGCCUAACACAACGCA [gtspaired]	-0.444
UUUUUUUUUUGAGAGGGAGACCCUCUUCUG [tttttgagapaired]	0.395
UUUUUUUUUUGAGAGCGAACCGCUCUCCUA [tttttgagapaired]	0.237
UUUUUUUUUUGAGACGGGAUCUGUCUCCUA [tttttgagapaired]	0.539
UUUUUUUUUUGAGACGGUAGCCGUCUCCUG [tttttgagapaired]	0.779
GGUGGUGGUGUUGGCGCCUAACACCGCUAC [gtspaired]	-0.599
UUUUUUUUUUGAGACUGCAACAGUCUUCUG [tttttgagapaired]	0.586
GUGGUGUGUGUUGGUUCCUAACACAUACCG [gtspaired]	-0.736
GUUGUGUGUGUUGGACCCUAACACACGCAA [gtspaired]	-0.167
UUUUUUUUUUGAGACCGAAGCGGUCUCCGG [tttttgagapaired]	0.431

Sequence	binding signal (log2 fold change)
UUUUUUUUUUGAGACGGACACUGUCUCCGG [tttttgagapaired]	0.785
GGUGUGUGUGUUGGACUCUAACACAUAUAC [gtspaired]	-0.738
GUGUUGUGUGUUGGCGUCUAACACACAGCA [gtspaired]	-0.86
GGUGGUUGUGUUGGUCUCUAACACAGCUAC [gtspaired]	-0.87
UUUUUUUUUUGAGACGGGGGCUGUCUUCUA [tttttgagapaired]	0.969
UUUUUUUUUUGAGACGGUAUCCGUUUCCGG [tttttgagapaired]	0.529
GUGUGUGGUGUUGGUCCCUAACACCAUACA [gtspaired]	-0.274
UUUUUUUUUUGAGACUGGGCCAGUCUCCAG [tttttgagapaired]	0.523
UUUUUUUUUUGAGACGGAGACUGUCUCCUA [tttttgagapaired]	1.12
GUUGUGUGUGUUGGCCCCUAACACACACAG [gtspaired]	-0.161
UUUUUUUUUUGAGAAGGGCUCCUUCUCCAG [tttttgagapaired]	0.24
GUGGUGUGUGUUGGACCCUAACACAUACCG [gtspaired]	-0.511
GUGUGUUGUGUUGGUAUCUAACACAGCGCA [gtspaired]	-0.672
UUUUUUUUUUGAGAGGGACACCCUCUCCGG [tttttgagapaired]	0.271
UUUUUUUUUUGAGAUGGAUGCCAUCUUCUA [tttttgagapaired]	0.0268
UUUUUUUUUUGAGAUGGGCUCUAUCUCCAG [tttttgagapaired]	0.411
GGUGUGUGUGUUGGACCCUAACACAUACAC [gtspaired]	-0.658
GUGUGUUGUGUUGGCCUCUAACACAGCACA [gtspaired]	-0.399
UUUUUUUUUUGAGAUGGACCCCAUCUCCUA [tttttgagapaired]	0.459
UUUUUUUUUUGAGAACGUAACGUUCUUCUG [tttttgagapaired]	0.153
UUUUUUUUUUGAGAUCGGGGCGAUCUUCUA [tttttgagapaired]	0.461
GUGGUGUGUGUUGGUCUCUAACACACACUA [gtspaired]	-0.552
UUUUUUUUUUGAGAACGGGACGUUCUUCUG [tttttgagapaired]	0.304
UUUUUUUUUUGAGAAGGAGUCCUUCUCCGG [tttttgagapaired]	0.129
UUUUUUUUUUGAGAUGGGGUCCGUCUCCAG [tttttgagapaired]	0.896
UUUUUUUUUUGAGAUGGUAACCAUCUCCGG [tttttgagapaired]	0.226

Sequence	binding signal (log2 fold change)
GGUGGUGGUGUUGGAAUCUAACACCAUCGC [gtspaired]	-0.418
GUGUGUUGUGUUGGUCCCUAACACAACACG [gtspaired]	-0.628
UUUUUUUUUUGAGACCGGGCCGGUCUCCUG [tttttgagapaired]	0.885
GUGUGUGGUGUUGGCGCCUAACACCGCAUA [gtspaired]	-0.515
GUGUGUGGUGUUGGCAUCUAACACCAUACA [gtspaired]	-0.578
UUUUUUUUUUGAGAGCGAAUCGCUCUUCUA [tttttgagapaired]	0.368
GUGUUGUGUGUUGGCGCCUAACACACAGCG [gtspaired]	-0.322
UUUUUUUUUUGAGAGGGUCUCCCUCUUCUG [tttttgagapaired]	0.47
UUUUUUUUUUGAGAGGGCUCCCCUCUUCUA [tttttgagapaired]	0.415
GGUGUGUGUGUUGGUAUCUAACACAUACGC [gtspaired]	-0.393
UUUUUUUUUUGAGACUGGCACAGUCUUCUA [tttttgagapaired]	0.0616
UUUUUUUUUUGAGACGGCUCCCGUCUCCUG [tttttgagapaired]	0.966
UUUUUUUUUUGAGAGGGUAUCCCUCUCCGG [tttttgagapaired]	0.313
UUUUUUUUUUGAGAUGGAGUCUAUCUCCUA [tttttgagapaired]	-0.062
UUUUUUUUUUGAGAUGGACUCCAUCUCCAG [tttttgagapaired]	0.141
UUUUUUUUUUGAGAGGGGCCCCCUCUCCAG [tttttgagapaired]	1.09
UUUUUUUUUUGAGACUGAAUCAGUUUCCGG [tttttgagapaired]	0.229
UUUUUUUUUUGAGAUGGUAACUAUCUUCUA [tttttgagapaired]	0.0899
UUUUUUUUUUGAGAUGGGGGCCAUCUCCGG [tttttgagapaired]	0.632
UUUUUUUUUUGAGACGGCAACCGUCUCCUA [tttttgagapaired]	0.429
GUGGUGUGUGUUGGAAUCUAACACAUACUA [gtspaired]	-0.757
UUUUUUUUUUGAGAGGGGUGCCCUCUCCAG [tttttgagapaired]	0.621
UUUUUUUUUUGAGACUGAAGCAGUCUUCUG [tttttgagapaired]	0.41
UUUUUUUUUUGAGACUGGAACAGUCUCCAG [tttttgagapaired]	0.223
GUGUGUGGUGUUGGUGUCUAACACCGCAUA [gtspaired]	-0.631
UUUUUUUUUUGAGACCGGAACGGUUUCCUA [tttttgagapaired]	0.307

Sequence	binding signal (log2 fold change)
GUGUGUUGUGUUGGCCCCUAACACAGCGCG [gtspaired]	-0.067
UUUUUUUUUUGAGAGCGGUACGCUCUUCUA [tttttgagapaired]	0.0331
UUUUUUUUUUGAGAGCGUGACGCUCUUCUA [tttttgagapaired]	0.0393
GGUUGGUGUGUUGGAGUCUAACACAUCAGC [gtspaired]	-0.866
UUUUUUUUUUGAGACGGAAUCUGUCUCCGG [tttttgagapaired]	0.383
GUUGGUGGUGUUGGCGCCUAACACCGCCGA [gtspaired]	-0.494
GGUUGGUGUGUUGGUCUCUAACACAUCAAC [gtspaired]	-0.88
UUUUUUUUUUGAGACCGAGACGGUCUCCGG [tttttgagapaired]	0.35
UUUUUUUUUUGAGAUGGAUCCCAUCUUCUG [tttttgagapaired]	0.384
UUUUUUUUUUGAGAUCGAACCGAUCUCCUG [tttttgagapaired]	0.139
UUUUUUUUUUGAGAGCGAGGCGCUCUCCUA [tttttgagapaired]	-0.0654
UUCUCUUCUCCUCCAGUGGAGGGGGAGGGA [ctspaired]	-0.668
GGUUGGUGUGUUGGAGUCUAACACAUCGAC [gtspaired]	-0.541
UUUUUUUUUUGAGAGCGAUACGCUCUUCUG [tttttgagapaired]	0.0296
UUUUUUUUUUGAGACGGACGCCGUCUUCUG [tttttgagapaired]	0.671
UUCCUCUCUCCUCCGGCGGAGGGGGGAGGA [ctspaired]	-0.135
UUUUUUUUUUGAGACGGAUUCCGUCUUCUA [tttttgagapaired]	0.192
UUUUUUUUUUGAGAGGGAUGCCCUCUCCGG [tttttgagapaired]	0.501
UUCUCUCUUCCUCCUGGGGAGGAGGGGAGA [ctspaired]	-0.691
UUUUUUUUUUGAGAUCGAGACGAUUUCCUA [tttttgagapaired]	-0.0102
UUUUUUUUUUGAGAUGGCGACCAUCUCCUG [tttttgagapaired]	0.363
UUCUCUUCUCCUCCAUUGGAGGGGGAGGGA [ctspaired]	-0.483
GUUGUGUGUGUUGGCACCUAACACACACGA [gtspaired]	-0.389
UUUUUUUUUUGAGACGGAUUCCGUCUCCGG [tttttgagapaired]	0.301
UUUUUUUUUUGAGAGGGCGCCCCUCUCCUA [tttttgagapaired]	0.63
